We go through four molecules from PMC10761038.

Protein sequences, listed by entry. Tags and fused reporters are not part of them.
UniProt Q14160: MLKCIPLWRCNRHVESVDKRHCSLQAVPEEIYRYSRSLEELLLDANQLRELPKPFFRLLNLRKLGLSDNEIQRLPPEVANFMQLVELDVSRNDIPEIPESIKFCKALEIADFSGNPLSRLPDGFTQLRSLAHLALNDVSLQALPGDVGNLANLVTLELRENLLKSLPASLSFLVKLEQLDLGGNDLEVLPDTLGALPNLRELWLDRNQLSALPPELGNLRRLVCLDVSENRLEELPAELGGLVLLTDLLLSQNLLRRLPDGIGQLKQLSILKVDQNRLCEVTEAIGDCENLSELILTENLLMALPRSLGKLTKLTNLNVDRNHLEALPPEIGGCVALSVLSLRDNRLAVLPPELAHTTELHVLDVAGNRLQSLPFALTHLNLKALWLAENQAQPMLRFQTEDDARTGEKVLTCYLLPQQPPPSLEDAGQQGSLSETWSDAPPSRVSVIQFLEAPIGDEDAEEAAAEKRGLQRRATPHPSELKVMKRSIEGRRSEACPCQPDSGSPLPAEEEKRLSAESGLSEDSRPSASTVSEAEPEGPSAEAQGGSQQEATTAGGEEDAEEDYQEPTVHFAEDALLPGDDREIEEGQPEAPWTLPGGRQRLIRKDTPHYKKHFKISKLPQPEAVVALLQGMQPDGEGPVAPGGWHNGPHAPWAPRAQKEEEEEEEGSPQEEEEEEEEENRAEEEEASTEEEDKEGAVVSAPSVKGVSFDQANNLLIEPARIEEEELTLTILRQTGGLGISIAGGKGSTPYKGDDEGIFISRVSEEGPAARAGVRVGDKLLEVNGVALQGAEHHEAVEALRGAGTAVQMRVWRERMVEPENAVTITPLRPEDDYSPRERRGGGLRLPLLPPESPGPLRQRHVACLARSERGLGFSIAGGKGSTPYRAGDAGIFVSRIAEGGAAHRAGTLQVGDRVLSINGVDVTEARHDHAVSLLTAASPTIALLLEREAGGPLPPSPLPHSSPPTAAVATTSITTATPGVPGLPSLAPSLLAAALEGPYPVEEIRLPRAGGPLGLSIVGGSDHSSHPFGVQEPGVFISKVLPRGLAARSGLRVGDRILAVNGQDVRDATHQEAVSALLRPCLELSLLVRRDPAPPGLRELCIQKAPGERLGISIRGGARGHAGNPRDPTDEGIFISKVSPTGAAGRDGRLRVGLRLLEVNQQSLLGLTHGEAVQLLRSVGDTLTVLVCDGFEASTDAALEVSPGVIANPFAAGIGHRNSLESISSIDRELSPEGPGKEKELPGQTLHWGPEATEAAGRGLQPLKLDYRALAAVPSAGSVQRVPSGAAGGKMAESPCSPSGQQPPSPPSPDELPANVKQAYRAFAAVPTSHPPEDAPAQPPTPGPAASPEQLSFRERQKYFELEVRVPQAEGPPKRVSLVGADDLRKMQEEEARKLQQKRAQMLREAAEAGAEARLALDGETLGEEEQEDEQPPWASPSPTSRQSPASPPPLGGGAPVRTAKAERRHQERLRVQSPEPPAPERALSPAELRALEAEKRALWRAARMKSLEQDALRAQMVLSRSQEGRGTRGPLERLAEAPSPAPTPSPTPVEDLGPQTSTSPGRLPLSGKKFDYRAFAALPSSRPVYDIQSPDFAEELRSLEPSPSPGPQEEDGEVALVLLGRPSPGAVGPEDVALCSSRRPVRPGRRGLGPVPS
UniProt P35221: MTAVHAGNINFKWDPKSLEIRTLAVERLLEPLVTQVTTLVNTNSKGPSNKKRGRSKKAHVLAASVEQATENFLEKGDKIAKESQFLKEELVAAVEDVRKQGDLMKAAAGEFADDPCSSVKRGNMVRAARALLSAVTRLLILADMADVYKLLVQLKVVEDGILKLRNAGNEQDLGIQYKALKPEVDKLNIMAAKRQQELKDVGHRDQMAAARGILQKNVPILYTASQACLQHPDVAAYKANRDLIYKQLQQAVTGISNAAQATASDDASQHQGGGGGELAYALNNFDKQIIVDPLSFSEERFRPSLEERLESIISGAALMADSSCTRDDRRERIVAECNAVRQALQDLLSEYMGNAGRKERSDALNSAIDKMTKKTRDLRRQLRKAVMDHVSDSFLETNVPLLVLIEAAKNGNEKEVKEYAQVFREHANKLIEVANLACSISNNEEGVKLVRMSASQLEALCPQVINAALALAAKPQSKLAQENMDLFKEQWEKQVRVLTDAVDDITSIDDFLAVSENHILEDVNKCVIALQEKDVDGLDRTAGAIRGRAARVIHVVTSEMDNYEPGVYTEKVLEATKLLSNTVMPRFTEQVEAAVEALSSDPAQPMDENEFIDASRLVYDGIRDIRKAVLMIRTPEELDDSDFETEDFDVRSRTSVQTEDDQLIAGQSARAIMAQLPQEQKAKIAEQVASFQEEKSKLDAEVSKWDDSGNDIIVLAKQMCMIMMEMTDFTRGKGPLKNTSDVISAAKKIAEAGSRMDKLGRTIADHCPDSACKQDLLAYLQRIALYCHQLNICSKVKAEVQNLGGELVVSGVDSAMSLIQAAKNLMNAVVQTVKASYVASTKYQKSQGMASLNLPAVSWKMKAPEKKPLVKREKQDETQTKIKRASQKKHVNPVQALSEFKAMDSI
UniProt P35222: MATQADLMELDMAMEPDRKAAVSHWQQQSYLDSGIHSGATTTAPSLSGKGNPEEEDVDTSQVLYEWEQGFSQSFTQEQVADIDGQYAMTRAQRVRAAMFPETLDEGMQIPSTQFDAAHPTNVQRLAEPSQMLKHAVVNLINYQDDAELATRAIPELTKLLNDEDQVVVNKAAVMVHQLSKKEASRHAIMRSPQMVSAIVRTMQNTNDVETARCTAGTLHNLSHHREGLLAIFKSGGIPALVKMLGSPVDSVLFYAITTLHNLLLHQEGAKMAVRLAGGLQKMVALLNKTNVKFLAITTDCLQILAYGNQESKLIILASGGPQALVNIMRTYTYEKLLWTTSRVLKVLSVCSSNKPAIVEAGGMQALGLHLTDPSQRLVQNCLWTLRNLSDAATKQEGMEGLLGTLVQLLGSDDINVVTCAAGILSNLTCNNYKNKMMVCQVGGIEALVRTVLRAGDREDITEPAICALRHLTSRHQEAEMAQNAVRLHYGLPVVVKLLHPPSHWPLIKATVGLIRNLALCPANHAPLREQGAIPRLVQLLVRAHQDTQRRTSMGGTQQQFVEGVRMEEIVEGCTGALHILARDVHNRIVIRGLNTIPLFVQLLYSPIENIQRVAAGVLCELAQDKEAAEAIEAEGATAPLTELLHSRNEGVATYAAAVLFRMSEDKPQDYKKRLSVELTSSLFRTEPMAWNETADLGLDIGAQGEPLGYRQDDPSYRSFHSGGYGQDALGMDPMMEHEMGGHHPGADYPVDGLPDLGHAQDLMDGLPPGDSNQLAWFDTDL

Assay [1] addresses T1, Lgl1 (endogenous) (human (endogenous in A549)) (UniProt Q15334).
T1 sequence: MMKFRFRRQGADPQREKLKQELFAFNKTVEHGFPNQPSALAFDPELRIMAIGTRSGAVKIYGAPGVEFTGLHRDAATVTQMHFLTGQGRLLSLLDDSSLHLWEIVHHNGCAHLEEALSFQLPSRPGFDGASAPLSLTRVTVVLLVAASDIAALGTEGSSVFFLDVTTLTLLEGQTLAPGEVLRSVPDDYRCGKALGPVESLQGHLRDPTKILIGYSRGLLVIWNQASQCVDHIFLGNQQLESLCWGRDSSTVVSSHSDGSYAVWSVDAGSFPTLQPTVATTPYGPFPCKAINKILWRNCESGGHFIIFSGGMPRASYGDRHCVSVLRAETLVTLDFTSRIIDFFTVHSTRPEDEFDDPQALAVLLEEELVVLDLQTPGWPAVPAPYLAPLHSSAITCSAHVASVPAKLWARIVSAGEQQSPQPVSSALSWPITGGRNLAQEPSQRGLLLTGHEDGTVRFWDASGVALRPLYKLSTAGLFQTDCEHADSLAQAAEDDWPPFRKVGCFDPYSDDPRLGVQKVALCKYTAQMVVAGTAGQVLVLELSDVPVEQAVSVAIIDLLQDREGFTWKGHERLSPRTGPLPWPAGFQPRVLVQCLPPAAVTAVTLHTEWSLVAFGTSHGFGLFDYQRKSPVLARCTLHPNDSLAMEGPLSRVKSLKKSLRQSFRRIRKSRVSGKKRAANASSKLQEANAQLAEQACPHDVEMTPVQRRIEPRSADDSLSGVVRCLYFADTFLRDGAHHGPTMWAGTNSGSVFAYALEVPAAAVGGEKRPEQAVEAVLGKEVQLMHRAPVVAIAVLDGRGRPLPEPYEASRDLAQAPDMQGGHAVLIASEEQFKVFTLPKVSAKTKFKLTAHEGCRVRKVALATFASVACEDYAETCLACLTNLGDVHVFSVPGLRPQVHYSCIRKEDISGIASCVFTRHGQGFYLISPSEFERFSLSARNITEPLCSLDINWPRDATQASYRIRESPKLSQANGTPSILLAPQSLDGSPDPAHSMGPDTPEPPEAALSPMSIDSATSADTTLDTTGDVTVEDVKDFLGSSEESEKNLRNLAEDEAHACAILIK
As to the kind of experiment: co-IP; A549 cell lysates (parental, stably expressing GFP-Scrib or Neon-Lgl1 forms, or tet-shLgl1 without Dox) in NP-40 buffer (20 mM Tris pH 8, 150-200 mM NaCl, 0.5 mM EDTA, 1% NP-40, 1 mM DTT, 5% glycerol); antibody 2 h at 4°C, protein A/G beads, three washes, Western blot; IgG as negative ….

Assay [2] has as its target Scribble (endogenous) (human (endogenous in A549)) (UniProt Q14160). The description is as above.
For assay [3], the target named is α-catenin (endogenous) (human (endogenous in A549)) (UniProt P35221). Described as above.
The target in the next assay is GST-α-catenin (UniProt P35221). The assay is described as follows: pull-down; GST proteins immobilised on glutathione beads, incubated with 10 µg MBP-Lgl1 or His-Scrib-PDZ in 200 µl binding buffer (20 mM Tris pH 8, 200 mM NaCl, 10% glycerol, 1% TX-100, 1 mM DTT) for 1 hr at 4°C; three washes, glutathione elution, Western blot or Ponceau S; both purified. For orientation: In western blotting, separated proteins are transferred to a membrane and probed.

The target of a further assay is GST-β-catenin (UniProt P35222). The assay is described as above.

Results are given in words; binding and its absence hold for the method and conditions named. For part of these data: In cells and extracts the contact can be indirect. Some binding calls cover weakened binding; strength is not graded here. For part of these data: Where a sequence is shown, tags or fusion partners need not be part of it.

For the molecule “Scribble (endogenous) (from UniProt Q14160 1-1655)”, the binding result in assay [1] is given as “binds”. As to “β-catenin (endogenous) (from UniProt P35222 1-781)”, in assay [2], the binding result was “binds”.

B1: Lgl1 (endogenous) (protein, UniProt Q15334 1-1064)
chain: MMKFRFRRQGADPQREKLKQELFAFNKTVEHGFPNQPSALAFDPELRIMAIGTRSGAVKIYGAPGVEFTGLHRDAATVTQMHFLTGQGRLLSLLDDSSLHLWEIVHHNGCAHLEEALSFQLPSRPGFDGASAPLSLTRVTVVLLVAASDIAALGTEGSSVFFLDVTTLTLLEGQTLAPGEVLRSVPDDYRCGKALGPVESLQGHLRDPTKILIGYSRGLLVIWNQASQCVDHIFLGNQQLESLCWGRDSSTVVSSHSDGSYAVWSVDAGSFPTLQPTVATTPYGPFPCKAINKILWRNCESGGHFIIFSGGMPRASYGDRHCVSVLRAETLVTLDFTSRIIDFFTVHSTRPEDEFDDPQALAVLLEEELVVLDLQTPGWPAVPAPYLAPLHSSAITCSAHVASVPAKLWARIVSAGEQQSPQPVSSALSWPITGGRNLAQEPSQRGLLLTGHEDGTVRFWDASGVALRPLYKLSTAGLFQTDCEHADSLAQAAEDDWPPFRKVGCFDPYSDDPRLGVQKVALCKYTAQMVVAGTAGQVLVLELSDVPVEQAVSVAIIDLLQDREGFTWKGHERLSPRTGPLPWPAGFQPRVLVQCLPPAAVTAVTLHTEWSLVAFGTSHGFGLFDYQRKSPVLARCTLHPNDSLAMEGPLSRVKSLKKSLRQSFRRIRKSRVSGKKRAANASSKLQEANAQLAEQACPHDVEMTPVQRRIEPRSADDSLSGVVRCLYFADTFLRDGAHHGPTMWAGTNSGSVFAYALEVPAAAVGGEKRPEQAVEAVLGKEVQLMHRAPVVAIAVLDGRGRPLPEPYEASRDLAQAPDMQGGHAVLIASEEQFKVFTLPKVSAKTKFKLTAHEGCRVRKVALATFASVACEDYAETCLACLTNLGDVHVFSVPGLRPQVHYSCIRKEDISGIASCVFTRHGQGFYLISPSEFERFSLSARNITEPLCSLDINWPRDATQASYRIRESPKLSQANGTPSILLAPQSLDGSPDPAHSMGPDTPEPPEAALSPMSIDSATSADTTLDTTGDVTVEDVKDFLGSSEESEKNLRNLAEDEAHACAILIK
As to B1, the binding result in assay [2] and in assay [3] was “binds” throughout.

B2: MBP-Lgl1 (protein, UniProt Q80Y17 1-1036)
chain: MMKFRFRRQGADPQREKLKQELFAFHKTVEHGFPNQPSALAFDPELRIMAIGTRSGAVKIYGAPGVEFTGLHRDAATVTQMHFLPGQGRLLTLLDDSSLHLWEIIHHNGCAHLEEGLSFHPPSRPSFDNASFPASLTRVTVVLLVAGNTAALGTESGSIFFLDVATLALLEGQTLSPDVVLRSVPDDYRCGKALGPVESLQGHLQDPSKILIGYSRGLLVIWSQATQSVDNVFLGNQQLESLCWGRDGSSIISSHSDGSYAIWSTDTGSPPTLQPTVVTTPYGPFPCKAINKILWRSCESGDHFIIFSGGMPRASYGDRHCVSVLRAETLVTLDFTSRVIDFFTVHSTQPEDECDNPQALAVLLEEELVVLDLQTPGWPAVPAPYLAPLHSSAITCSAHVANVPSKLWARIVSAGEQQSPQPASSALSWPITGGRNLAQEPSQRGLLLTGHEDGTVRFWDASGVALRPLYKLSTAGLFQTDCEHADSLAQAVEDDWPPFRKVGCFDPYSDDPRLGIQKVALCKYTAQMVVAGTAGQVLVLELSEVPAEHAVSVANVDLLQDREGFTWKGHERLNPHTGLLPWPAGFQPRMLIQCLPPAAVTAVTLHAEWSLVAFGTSHGFGLFDYQRKSPVLARCTLHPNDSLAMEGPLSRVKSLKKSLRQSFRRIRKSRVSGKKRTPAASSKLQEANAQLAEQTCPHDLEMTPVQRRIEPRSADDSLSGVVRCLYFADTFLRDATHHGPTMWAGTNSGSVFAYALEVPAATAGGEKRPEQAVEAVLGKEVQLMHRAPVVAIAVLDGRGRPLPEPYEASRDLAQAPDMQGGHAVLIASEEQFKVFTLPKVSAKTKFKLTAHEGCRVRKVALATFASVMSEDYAETCLACLTNLGDVHVFSVPGLRPQVHYSCIRKEDISGIASCVFTRHGQGFYLISPSEFERFSLSARNITEPLCSLDISWPQNATQPRLQESPKLSQANGTRDIILAPESCEGSPSSAHSKRADTMEPPEAALSPVSIDSAASGDTMLDTTGDVTVEYVKDFLG
Consider B2, for which the binding result in the assay with GST-α-catenin is on record as “binds”; with GST-β-catenin, “no binding (tested: 10 µg MBP-Lgl1 in 200 µl)”.
